# Test results published in the supplement of paper PMC10037445.
# Whole data set: some 2,900 compounds, median “IRF Lucia reporter activity, fold change vs agonist alone” near 0.9, cut for the highest 2% near 2.8. Some of the results follow.
# Key:
# RAW-Dual [1] = assay: IRF Lucia reporter activity, fold change vs agonist alone; cytotoxicity flag (confluency mask): cytotoxic (confluency <70% of control); higher = enhanced IRF activity
# Method in brief: (§1)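 RAW-Dual macrophages were seeded in DMEM at 50,000 cells/well in 384-well plates, given 50 nL of library stock by pin tool, and given a PRR agonist 1 h later. Plates were held at 37 °C, 5% CO2 for 20 hours, after which supernatant was read for IRF by QuantiLuc luminescence and for NF-κB by QuantiBlue absorbance at 620 nm. Reporter activity is expressed as fold change over wells that received agonist alone. A well was called cytotoxic when IncuCyte confluency fell below 70% of agonist controls in both mask sets.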
# RAW-Dual [2] = assay: IRF Lucia reporter activity, fold change vs agonist alone; cytotoxicity flag (confluency mask): not cytotoxic; higher = enhanced IRF activity
# Method in brief: as §1
# RAW-Dual [3] = assay: IRF Lucia reporter activity, fold change vs agonist alone; higher = enhanced IRF activity; conditions: library stock concentration (final ~1000-fold dilution): 10 mM, agonist: MPLA (TLR4) […]
# Method in brief: as §1
# [4] = agonist: 3'3'-cGAMP (STING) 10 ug/mL
# [5] = cytotoxicity flag (confluency mask): not cytotoxic
structure (smiles),measurement,setting,value
O=C(/C=C/c1ccc(O)cc1)c1ccccc1 (library stock concentration (final ~1000-fold dilution): 10 mM),IRF Lucia reporter activity,RAW-Dual [1]; [4],0.0303
same,IRF Lucia reporter activity,RAW-Dual [1]; agonist: LPS (TLR4) 0.1 ug/mL,0.0523
CC(C)Cc1ccc(C(C)C(=O)NS(C)(=O)=O)cc1 (stereo unspecified) (library stock concentration (final ~1000-fold dilution): 10 mM),IRF Lucia reporter activity,RAW-Dual [2]; [4],0.9
same,IRF Lucia reporter activity,RAW-Dual [2]; agonist: LPS (TLR4) 0.1 ug/mL,0.729
O=c1c(O)c(-c2ccccc2)oc2cc(O)cc(O)c12 (library stock concentration (final ~1000-fold dilution): 10 mM),IRF Lucia reporter activity,RAW-Dual [2]; [4],0.623
same,IRF Lucia reporter activity,RAW-Dual [2]; agonist: LPS (TLR4) 0.1 ug/mL,0.314
O=c1c(O)c(-c2ccccc2)oc2cc(O)cc(O)c12,IRF Lucia reporter activity,RAW-Dual [3]; [5],0.745
NC(=O)c1ccc2[nH]c(-c3ccc(Oc4ccc(Cl)cc4)cc3)nc2c1 (library stock concentration (final ~1000-fold dilution): 10 mM),IRF Lucia reporter activity,RAW-Dual [2]; [4],0.242
same,IRF Lucia reporter activity,RAW-Dual [2]; agonist: LPS (TLR4) 0.1 ug/mL,0.848
CC(=O)O.NCc1ccc(S(N)(=O)=O)cc1 (library stock concentration (final ~1000-fold dilution): 10 mM),IRF Lucia reporter activity,RAW-Dual [2]; [4],1.01
same,IRF Lucia reporter activity,RAW-Dual [2]; agonist: LPS (TLR4) 0.1 ug/mL,0.97
CC(=O)O.NCc1ccc(S(N)(=O)=O)cc1,IRF Lucia reporter activity,RAW-Dual [3]; [5],1.05
COc1ccc(CCCOC(Cn2ccnc2)c2ccc(OC)cc2)cc1.Cl (stereo unspecified) (library stock concentration (final ~1000-fold dilution): 10 mM),IRF Lucia reporter activity,RAW-Dual [2]; [4],0.548
same,IRF Lucia reporter activity,RAW-Dual [2]; agonist: LPS (TLR4) 0.1 ug/mL,0.881
NC(=O)c1cccc2cn(-c3ccc(C4CCCNC4)cc3)nc12 (stereo unspecified) (library stock concentration (final ~1000-fold dilution): 10 mM),IRF Lucia reporter activity,RAW-Dual [2]; [4],0.52
same,IRF Lucia reporter activity,RAW-Dual [2]; agonist: LPS (TLR4) 0.1 ug/mL,0.454
NC(=O)c1cccc2cn(-c3ccc(C4CCCNC4)cc3)nc12 (stereo unspecified),IRF Lucia reporter activity,RAW-Dual [3]; [5],0.595
CCN1/C(=C/C(C)=O)Sc2ccc(OC)cc21,IRF Lucia reporter activity,RAW-Dual [3]; [5],0.557
CCN1/C(=C/C(C)=O)Sc2ccc(OC)cc21 (library stock concentration (final ~1000-fold dilution): 10 mM),IRF Lucia reporter activity,RAW-Dual [2]; [4],0.606
same,IRF Lucia reporter activity,RAW-Dual [2]; agonist: LPS (TLR4) 0.1 ug/mL,0.533
CCCCC(C=O)NC(=O)C(CC(C)C)NC(=O)C(CC(C)C)NC(C)=O (stereo unspecified),IRF Lucia reporter activity,RAW-Dual [3]; [5],2.59
CCCCC(C=O)NC(=O)C(CC(C)C)NC(=O)C(CC(C)C)NC(C)=O (stereo unspecified) (library stock concentration (final ~1000-fold dilution): 10 mM),IRF Lucia reporter activity,RAW-Dual [2]; [4],0.827
same,IRF Lucia reporter activity,RAW-Dual [2]; agonist: LPS (TLR4) 0.1 ug/mL,2.25
O=C(NOCC(O)CO)c1ccc(F)c(F)c1Nc1ccc(I)cc1F (stereo unspecified),IRF Lucia reporter activity,RAW-Dual [3]; [5],3.52
O=C(NOCC(O)CO)c1ccc(F)c(F)c1Nc1ccc(I)cc1F (stereo unspecified) (library stock concentration (final ~1000-fold dilution): 10 mM),IRF Lucia reporter activity,RAW-Dual [2]; [4],0.903
same,IRF Lucia reporter activity,RAW-Dual [2]; agonist: LPS (TLR4) 0.1 ug/mL,3.61
CCCCOc1ccc(CC(=O)NO)cc1 (library stock concentration (final ~1000-fold dilution): 10 mM),IRF Lucia reporter activity,RAW-Dual [2]; [4],0.25
same,IRF Lucia reporter activity,RAW-Dual [2]; agonist: LPS (TLR4) 0.1 ug/mL,0.826
CCCCOc1ccc(CC(=O)NO)cc1,IRF Lucia reporter activity,RAW-Dual [3]; [5],1.01
Oc1c(Cl)cc(Cl)cc1Sc1cc(Cl)cc(Cl)c1O (library stock concentration (final ~1000-fold dilution): 10 mM),IRF Lucia reporter activity,RAW-Dual [1]; [4],0.606
same,IRF Lucia reporter activity,RAW-Dual [1]; agonist: LPS (TLR4) 0.1 ug/mL,1.09
Oc1c(Cl)cc(Cl)cc1Sc1cc(Cl)cc(Cl)c1O,IRF Lucia reporter activity,RAW-Dual [3]; cytotoxicity flag (confluency mask): cytotoxic (confluency <70% of control),1.11
Cc1cc(C)cc(NC(=O)Cc2ccc(OC(C)(C)C(=O)O)cc2)c1 (library stock concentration (final ~1000-fold dilution): 10 mM),IRF Lucia reporter activity,RAW-Dual [2]; [4],0.948
same,IRF Lucia reporter activity,RAW-Dual [2]; agonist: LPS (TLR4) 0.1 ug/mL,0.958
COC(=O)c1c2c(c3ccccc3c1O)OC(C)(C)C=C2 (library stock concentration (final ~1000-fold dilution): 10 mM),IRF Lucia reporter activity,RAW-Dual [2]; [4],0.112
same,IRF Lucia reporter activity,RAW-Dual [2]; agonist: LPS (TLR4) 0.1 ug/mL,0.62
CCCCN1CCCCC1C(=O)Nc1c(C)cccc1C.Cl (stereo unspecified) (library stock concentration (final ~1000-fold dilution): 10 mM),IRF Lucia reporter activity,RAW-Dual [2]; [4],0.973
same,IRF Lucia reporter activity,RAW-Dual [2]; agonist: LPS (TLR4) 0.1 ug/mL,1.09
CCCCN1CCCCC1C(=O)Nc1c(C)cccc1C.Cl (stereo unspecified),IRF Lucia reporter activity,RAW-Dual [3]; [5],1.09
COc1ccc(/C=C/C(=O)C2(C(=O)/C=C/c3ccc(OC)c(OC)c3)CCCCC2)cc1OC,IRF Lucia reporter activity,RAW-Dual [3]; [5],0.15
COc1ccc(/C=C/C(=O)C2(C(=O)/C=C/c3ccc(OC)c(OC)c3)CCCCC2)cc1OC (library stock concentration (final ~1000-fold dilution): 10 mM),IRF Lucia reporter activity,RAW-Dual [2]; [4],0.0112
same,IRF Lucia reporter activity,RAW-Dual [2]; agonist: LPS (TLR4) 0.1 ug/mL,0.256
CCC(C)(Nc1ccnc(-c2c[nH]c3ncccc23)n1)C(=O)NCC(F)(F)F (stereo unspecified) (library stock concentration (final ~1000-fold dilution): 10 mM),IRF Lucia reporter activity,RAW-Dual [2]; [4],0.291
same,IRF Lucia reporter activity,RAW-Dual [2]; agonist: LPS (TLR4) 0.1 ug/mL,0.35
CCC(C)(Nc1ccnc(-c2c[nH]c3ncccc23)n1)C(=O)NCC(F)(F)F (stereo unspecified),IRF Lucia reporter activity,RAW-Dual [3]; [5],0.41
CCOC(=O)CCNc1cc(N2CCc3ccccc3CC2)nc(-c2ccccn2)n1.Cl,IRF Lucia reporter activity,RAW-Dual [3]; [5],1
